The supplement of paper PMC4967469

Tests used:
Experiment in all cases: Viability of human cancer cell lines after 72 h of drug (GDSC screen)
[1] = compound: CN(C)C/C=C/C(=O)Nc1cc2c(Nc3ccc(F)c(Cl)c3)ncnc2cc1O[C@H]1CCOC1 [Afatinib]
Method: (§1)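 Human cancer cell lines in 384-well plates, medium with 10% serum, drug for 72 h over a 256-fold dose range (nine 2-fold or five 4-fold steps up to the top dose). Adherent lines were fixed and stained with the nucleic acid dye Syto60, suspension lines read with resazurin; signal relative to control wells, capped at 0 and 100%. One two-parameter sigmoid per drug and line, fitted in a mixed model over all curves with the slope shared within a line.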

[2] = compound: CC1(C)CC(=O)c2c(C(F)(F)F)nn(-c3ccc(C(N)=O)c(N[C@H]4CC[C@H](O)CC4)c3)c2C1 [SNX-2112]; conditions: top dose 2.56 µM
Method: as §1

[3] = compound: CN(c1ncccc1CNc1nc(Nc2ccc3c(c2)CC(=O)N3)ncc1C(F)(F)F)S(C)(=O)=O [PF-562271]; conditions: top dose 2.56 µM; top dose inferred
Method: as §1

[4] = compound: O=C(NC1CC1)c1cccc(-c2ccc3c(NC(=O)C4CC4)n[nH]c3c2)c1 [XMD13-2]; conditions: top dose 10.24 µM; top dose inferred
Method: as §1

[5] = top dose 10 µM, screen: GDSC drug entry 1377, top dose inferred
[6] = top dose 0.5 µM, screen: GDSC drug entry 1032

| Cell Line | AUC [1, 5] | IC50 [1, 5] [nM] | AUC [2] | IC50 [2] [nM] | AUC [3] | IC50 [3] [nM] | AUC [4] | IC50 [4] [nM] | AUC [1, 6] | IC50 [1, 6] [nM] |
| --- | --- | --- | --- | --- | --- | --- | --- | --- | --- | --- |
| BFTC-909 (kidney, adherent) | 0.9 | > 10000 | 0.83 | 1560 | 0.977 | > 2560 | 0.988 | > 10200 |  |  |
| BHY (head and neck, adherent) | 0.655 | 1690 | 0.516 | 177 | 0.777 | 1030 | 0.937 | > 10200 |  |  |
| BPH-1 (prostate, adherent) | 0.407 | 339 | 0.386 | 75.2 | 0.758 | 976 | 0.615 | 1380 |  |  |
| BT-20 (breast, adherent) | 0.899 | > 10000 | 0.884 | > 2560 | 0.931 | > 2560 | 0.938 | > 10200 | 0.871 | > 500 |
| BT-483 (breast, adherent) | 0.975 | > 10000 | 0.879 | > 2560 | 0.967 | > 2560 | 0.966 | > 10200 | 0.973 | > 500 |
| CAL-54 (kidney, adherent) | 0.878 | > 10000 | 0.934 | > 2560 | 0.95 | > 2560 | 0.973 | > 10200 |  |  |
| CAMA-1 (breast, adherent) | 0.962 | > 10000 | 0.841 | 2480 | 0.884 | > 2560 | 0.94 | > 10200 |  |  |
| CCRF-CEM (lymphoblastic leukaemia, suspension) | 0.979 | > 10000 | 0.167 | 19.8 | 0.9 | 2350 | 0.737 | 2660 | 0.972 | > 500 |
| COLO-792 (melanoma, adherent) | 0.987 | > 10000 | 0.872 | 2370 | 0.947 | > 2560 | 0.824 | 5980 |  |  |
| COLO-829 (melanoma, adherent) | 0.933 | > 10000 | 0.904 | > 2560 | 0.725 | 963 | 0.958 | > 10200 |  |  |
| COR-L105 (lung adenocarcinoma, adherent) | 0.338 | 200 | 0.463 | 124 | 0.886 | > 2560 | 0.91 | > 10200 |  |  |
| Calu-6 (lung adenocarcinoma, adherent) | 0.931 | > 10000 | 0.765 | 1070 | 0.877 | > 2560 | 0.929 | > 10200 | 0.978 | > 500 |
| ChaGo-K-1 (non-small cell lung carcinoma, adherent) | 0.979 | > 10000 | 0.812 | 1660 | 0.938 | > 2560 | 0.952 | > 10200 |  |  |
| DMS-114 (small cell lung carcinoma, adherent) | 0.916 | > 10000 | 0.528 | 193 | 0.983 | > 2560 | 0.89 | > 10200 | 0.985 | > 500 |
| ES3 (Ewing sarcoma, adherent) | 0.87 | > 10000 | 0.459 | 123 | 0.974 | > 2560 | 0.867 | 10100 |  |  |
| Farage (B-cell lymphoma, suspension) | 0.992 | > 10000 | 0.224 | 30.6 | 0.956 | > 2560 | 0.8 | 3950 | 0.965 | > 500 |
| GAMG (glioma, adherent) | 0.948 | > 10000 | 0.297 | 41.5 | 0.931 | > 2560 | 0.801 | 5270 |  |  |
| GCT (soft tissue, adherent) | 0.988 | > 10000 | 0.972 | > 2560 | 0.919 | > 2560 | 0.989 | > 10200 |  |  |
| GP5d (large intestine, adherent) | 0.976 | > 10000 | 0.471 | 134 | 0.844 | 1550 | 0.919 | > 10200 |  |  |
| H2591 (mesothelioma, adherent) | 0.886 | > 10000 | 0.786 | 1480 | 0.972 | > 2560 | 0.939 | > 10200 |  |  |
| H2803 (mesothelioma, adherent) | 0.971 | > 10000 | 0.945 | > 2560 | 0.944 | > 2560 | 0.981 | > 10200 |  |  |
| H2804 (mesothelioma, adherent) | 0.984 | > 10000 | 0.962 | > 2560 | 0.922 | > 2560 | 0.976 | > 10200 |  |  |
| H2818 (mesothelioma, adherent) | 0.976 | > 10000 | 0.953 | > 2560 | 0.986 | > 2560 | 0.988 | > 10200 |  |  |
| H-EMC-SS (chondrosarcoma, adherent) | 0.979 | > 10000 | 0.401 | 78.9 | 0.908 | > 2560 | 0.959 | > 10200 |  |  |
| HCC38 (breast, adherent) | 0.978 | > 10000 | 0.48 | 140 | 0.977 | > 2560 | 0.889 | > 10200 | 0.983 | > 500 |
| HCC70 (breast, adherent) | 0.962 | > 10000 | 0.762 | 897 | 0.836 | 1660 | 0.918 | > 10200 | 0.965 | > 500 |
| HCC1500 (breast, adherent) | 0.979 | > 10000 | 0.91 | > 2560 | 0.976 | > 2560 | 0.927 | > 10200 | 0.972 | > 500 |
| HCC1806 (breast, adherent) | 0.934 | > 10000 | 0.499 | 159 | 0.946 | > 2560 | 0.856 | 7190 |  |  |
| HCC1937 (breast, adherent) | 0.96 | > 10000 | 0.815 | 1690 | 0.943 | > 2560 | 0.908 | > 10200 | 0.946 | > 500 |

A lower IC50 marks a more sensitive line; a limit (>, <) means that the fit lies beyond the doses tested. AUC is the area under the same curve over the 256-fold range up to the top dose, as a fraction; it is 1 without any effect and falls as sensitivity rises. For part of these data: The top dose, if marked as inferred, comes from the curve model; the source does not state it. For part of these data: An entry number marks a drug with two screens in the source, which often give different values.
